# Experimental data published in paper PMC12136788.
# This is one part of the list.
# T1: UNK ZnF1-3 (human, UniProt Q9C0B0 31-174)
# T1 sequence: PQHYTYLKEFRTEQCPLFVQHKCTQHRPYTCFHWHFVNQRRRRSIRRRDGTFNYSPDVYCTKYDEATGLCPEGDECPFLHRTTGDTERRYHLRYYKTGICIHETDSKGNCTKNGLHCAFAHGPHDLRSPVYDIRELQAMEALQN
# B1: chr2:198351390:198351391:-_ENSG00000144381_ENST00000345042|hu_hu|hu_hu_hu_mus_False|8_28 (ssRNA)
# RNA: GGGAGUUCUACAGUCCGACGAUCUCAUUCCCACCCUCCACAGAAAGGCUGCUUCUGAACUCUCAUGUGGUGACACAGCGCUACAGUCCUGAUGCUCACAGAACAGUAGUAAAAAUGCAGUGAUUUAUUAAGUUGAAAGGACACCAACAGAGGAUUGAGCAUCA
# B2: chr20:52835626:52835627:+_ENSG00000101132_ENST00000441080|hu_mus|motif|central (ssRNA)
# RNA: GGGAGUUCUACAGUCCGACGAUCUGCCUCGAGGUUUAUGUUGCUGCCAAAUUUCGCGUAUAGCUGCACCUUCAGGUCGGCGGACACCCGCUGGAUGGACGCCACUCUGGACUCUAAGGCAUCAAUCUCUUCUUGCAAAGUUUUCAACAGAGGAUUGAGCAUCA
# B3: chr11:102258902:102258903:+_ENSMUSG00000006575_ENSMUST00000006750|mus_mus|FALSE|FALSE (ssRNA)
# RNA: GGGAGUUCUACAGUCCGACGAUCGAAAUUAACAAACUCCUCGGAAGAGUCAUCAAUGGGUUCUGCUGUGUACUUCUCUAGCAGGGUUUUCACAGAGAACCUGCACACGGUGAUCAGGUUCCUGCGCUCCACGAUCACGUUGCGCAACAGAGGAUUGAGCAUCA
# B4: chr7:149068622:149068623:-_ENSMUSG00000025139_ENSMUST00000001950|mus_hu|mus_mus_mus_hu_False|18_78 (ssRNA)
# RNA: GGGAGUUCUACAGUCCGACGAUCGUGAGGCCUCUGAGUGUGGCUUGUGGUCUGUCCUGUCUGCAGUUUGUUAAUAUCACGGAACAUACCAUCUAGAACGUUCCAGUCCCGCCUGACCAUCCACCCUCCAAUGGAGAAGAAAUCCAACAGAGGAUUGAGCAUCA
# B5: 55647946_55649138_721_CDS_ENSG00000126787_ENST00000247191|human|control|control (ssRNA)
# RNA: GGGAGUUCUACAGUCCGACGAUCUGACACUUUCUUUUCAGAAGUUUGUCUUGGACCAGGUCGGAUUGCUCGAACAUCACUCUCGUUAUCAAUCUUAGUCUGCUCCAUUUGGUCUUUGGCCUUUGACCUUGUAAUCCGUACAGACAACAGAGGAUUGAGCAUCA
# B6: 59351071_59358873_1209_CDS_ENSMUSG00000025094_ENSMUST00000026084|mouse|control|control (ssRNA)
# RNA: GGGAGUUCUACAGUCCGACGAUCCCCAACAACUAUCAUUCCCAGAAGAGCACACAGCCACCUUCCCAUUUUGUGUGCAAGUAUCCCAAAAAUAUUGGUUCCAAUGAGAUAAGAGAUGCUCGCUGGCAGGAAGGCAACGCCCAGCAACAGAGGAUUGAGCAUCA
# B7: 63482227_63482347_13669_CDS_ENSMUSG00000030451_ENSMUST00000076226|mouse|control|control (ssRNA)
# RNA: GGGAGUUCUACAGUCCGACGAUCGUAACAGUCUCUGUUGGCACCAGACUCAUCCCUGCCAUUGGGAGUCACAAUCAGAAGAGGUGUGAGUCCGUUUUGCAGCUCCUCACAAAUCUCUGCUAUAGACUCACUGUAGCCACCACCCAACAGAGGAUUGAGCAUCA
# B8: chr6:86328614:86328615:-_ENSG00000135316_ENST00000355238|hu_hu|FALSE|FALSE (ssRNA)
# RNA: GGGAGUUCUACAGUCCGACGAUCCUGAGCUUUUCUUUCUUUCCUUUUCUGAUCUGGUGGCUUGGCAAAAACAAUUUCAAUAUUUUCUCCCUCCAAGUCUUUGCCAUUCAUUUCUUCCAUAGCCUUGACAGCACCAUCUCGCUCCAACAGAGGAUUGAGCAUCA
# B9: chr5:93602159:93602160:+_ENSMUSG00000058013_ENSMUST00000074733|mus_mus|FALSE|FALSE (ssRNA)
# RNA: GGGAGUUCUACAGUCCGACGAUCGCAUGUCUUUAAAAGCUUUUAGGGAUGAGAGAAAUUGAAUGCAAAGGGGUGUUUUCUAUUCCAAGGCACAUACACACACACAAAAUAAAGCUCACACAAGCAGUGGCCGGAACAAGCAGACAACAGAGGAUUGAGCAUCA
# B10: chr6:44218825:44218826:+_ENSG00000096384_ENST00000371646|hu_hu|FALSE|FALSE (ssRNA)
# RNA: GGGAGUUCUACAGUCCGACGAUCGUUGUUCUUUUUCUUCUUGUUCUCAAAAAGGUCAAAGGGAGCCCGACGAGGAAUAAAUAGCAAUGCCCUGAAUUCCAACUGACCUUCUACAGAAAAGUGCUUGACUGCCAAGUGGUCUUCCAACAGAGGAUUGAGCAUCA
# B11: chr8:74858975:74858976:-_ENSG00000154582_ENST00000284811|hu_mus|hu_hu_hu_mus_True|48_108 (ssRNA)
# RNA: GGGAGUUCUACAGUCCGACGAUCGACCUUGUACGUAAAAUACAUGCACACUUUUGAUAGCACAUGUGAGGGGAUCUCUCUAAAAUUGACCUCAUUGGUUUCAUUCUCAGCAAACUGACCUGGACCACUCAACAUAGCCUUUAUCAACAGAGGAUUGAGCAUCA
# B12: chr16:45382771:45382772:-_ENSMUSG00000022661_ENSMUST00000163230|mus_mus|mus_mus_mus_hu_True|58_108 (ssRNA)
# RNA: GGGAGUUCUACAGUCCGACGAUCCUGAGUGUUAUUGUAAGACAAAUGGACAGGGAGGGCAUGCUUCUCAAAAAAUGUGAACUACUCUCUAAGACUAACAAUAUUUAUCUAGCUAUAAAAAUAAGUUAAAUGAAUAAGUUAAGACAACAGAGGAUUGAGCAUCA
# B13: chr6:30688276:30688277:+_ENSG00000196230_ENST00000327892|hu_mus|motif|central (ssRNA)
# RNA: GGGAGUUCUACAGUCCGACGAUCCCGAUCUGGUUGCCACACUGUCCGGCCUGGAUGUGCACGAUUUCCCUCAUGGCGGCGGUUUACUGAAAUAAUUGUUUUUGAUGGUUCCAAUGUAGGUACCGAACAAGAAAGAAAAUUAAGCAACAGAGGAUUGAGCAUCA
# B14: chr17:64801638:64801639:+_ENSG00000154229_ENST00000413366|hu_mus|hu_hu_hu_mus_False|1_88 (ssRNA)
# RNA: GGGAGUUCUACAGUCCGACGAUCUAUAUAUAUAUAUACAUAUGUACACAUAUGUAGUAAAACCCUAGUUAAACGUGUAAAGUAGCCAUUCAUUUUUAAAAUUACAUCUACAUUAAAAAAUUAAUAUAUCUGAUAGAGUGCCCACAACAGAGGAUUGAGCAUCA
# B15: chr10:27411851:27411852:-_ENSG00000136758_ENST00000375972|hu_mus|FALSE|FALSE (ssRNA)
# RNA: GGGAGUUCUACAGUCCGACGAUCCGUCUGCCUUGAAUACGGGUGCAUUGGAGAUUCAAUUCUCUUUCCACCAACAGAAUCUAAUUCAUCGAUGAAUAUAACACAAGGAGCAUUUGCUUUUGCUUCUCUAAAAAGAUUUCUGAUCAACAGAGGAUUGAGCAUCA
# B16: chrX:71549400:71549401:+_ENSMUSG00000019087_ENSMUST00000019231|mus_mus|motif|central (ssRNA)
# RNA: GGGAGUUCUACAGUCCGACGAUCAGUAGGAAGAGGACAAACCUUUCCAUCCACUGUGUCACAAAACAGAAACAUGACAACCGGGACACCAAUACUCCCUCAAUUCCUCUCAGGUGUAUGUCACACAAUCUGGGUCAAAGUGAUCAACAGAGGAUUGAGCAUCA
# B17: chr13:59555571:59555572:-_ENSMUSG00000021557_ENSMUST00000164215|mus_mus|motif|central (ssRNA)
# RNA: GGGAGUUCUACAGUCCGACGAUCAAAAGAGAAAGGAAUUGCUAAUGUCUGAUUGGUGGCAAGAGGCAUGAAGCUGUAGCGGUUAAAUGGCCCUGAGCCAGUCCUCCCAGGAGAGUGCCGAUGGCCAGGUCACUGUCAUCGCGUCAACAGAGGAUUGAGCAUCA
# B18: chr14:102516957:102516958:+_ENSG00000197102_ENST00000360184|hu_hu|motif|central (ssRNA)
# RNA: GGGAGUUCUACAGUCCGACGAUCAGCUCAGACCUUCCAAAUAUUUUAAAAAUGAAUAAAUGUUAAAUACCAACUUUCACGGUUACAGAAAGGGGCAGCUAGAAAAGUUUACUCUGUGCACAAGACUGCGACACCCCGCUCGUACAACAGAGGAUUGAGCAUCA
# B19: chr20:37186997:37186998:+_ENSG00000170471_ENST00000397040|hu_mus|motif|central (ssRNA)
# RNA: GGGAGUUCUACAGUCCGACGAUCAUCAAAAAAUCCAGGUAUGGUAGAAUCGAGUGCAAUAAGAUGAGGAGGUAGACGACGGUUUGCAGGUUCCUUUAAUGCCUCUAAGGAUAAAAAUCCAAAGUGAGAAAGGAAAAGGCGGGCCAACAGAGGAUUGAGCAUCA
# B20: 5257666_5264503_1260_3pUTR_ENSG00000029725_ENST00000262477|human|control|control (ssRNA)
# RNA: GGGAGUUCUACAGUCCGACGAUCCCUCUUCAUUUGAUAACUGGGCUGAAGAUUCUUCUUGAGUUAAAGCACACACUACUGGUAUUUUUAUUUCUUCCUCAACAUCUGCUUUUUUGUGAUCCUUUCUCUUAUUGAGUCUUUGUUCAACAGAGGAUUGAGCAUCA
# B21: chr20:43533646:43533647:+_ENSG00000166913_ENST00000353703|hu_mus|FALSE|FALSE (ssRNA)
# RNA: GGGAGUUCUACAGUCCGACGAUCGAAAUUCAGCGCCAGGCCGAGGCGAAUCGGGUGUGUAGGCUGCAUUUCUUUCUUGCUGAUUUCAAAUGCUUCUUGGUAAGCCUGCUGGGAGUUGGACACCGUGGUUUGUUUAUUUUCUCCCAACAGAGGAUUGAGCAUCA
# B22: chr3:95733387:95733388:+_ENSMUSG00000015749_ENSMUST00000165307|mus_hu|motif|central (ssRNA)
# RNA: GGGAGUUCUACAGUCCGACGAUCAGAUAGGUGUGGGGGAGAAAGAAGAGAAUAGCAAAUGGAGUCCAAGAGUUGGGACUCGGACUCAGCUGCCCCCACCUCCUUGUCCACACACUAGCGCGCGCACACACACGCACGCACGCGCAACAGAGGAUUGAGCAUCA
# Biological target: T1, UNK ZnF1-3
# Assay: nsRBNS (natural sequence RNA bind-n-seq); RBNS binding buffer (assumed for nsRBNS): 25 mM Tris pH 7.5, 150 mM KCl, 3 mM MgCl2, 0.01% Triton X-100, 500 ug/ml BSA, 20 U/ml SUPERase-In, 4 C; UNK is unkempt and MSI1 is Musashi-1; names of the RNAs are library labels; protein concentration not given here; high values mean tight binding
row,Binder,binding signal [enrichment R]
1,B1,1.59
2,B2,0.883
3,B3,0.409
4,B4,0.888
5,B5,0.674
6,B6,1.07
7,B7,0.885
8,B8,0.632
9,B9,2.45
10,B10,0.931
11,B11,0.89
12,B12,1.43
13,B13,1.4
14,B14,2.17
15,B15,0.867
16,B16,0.988
17,B17,1.14
18,B18,3.19
19,B19,1.47
20,B20,0.427
21,B21,0.604
22,B22,0.528
